# Results are given in words; binding and its absence hold for the method and conditions named. In cells and extracts the contact can be indirect. Some results given as binding are weak or reduced against the parent protein; the word gives no strength.
# By UniProt entry, the sequences of proteins in these tests, tags left out. Where a name states a change or a piece, a line headed by the entry shows the natural chain unless it says otherwise.
# UniProt Q13547: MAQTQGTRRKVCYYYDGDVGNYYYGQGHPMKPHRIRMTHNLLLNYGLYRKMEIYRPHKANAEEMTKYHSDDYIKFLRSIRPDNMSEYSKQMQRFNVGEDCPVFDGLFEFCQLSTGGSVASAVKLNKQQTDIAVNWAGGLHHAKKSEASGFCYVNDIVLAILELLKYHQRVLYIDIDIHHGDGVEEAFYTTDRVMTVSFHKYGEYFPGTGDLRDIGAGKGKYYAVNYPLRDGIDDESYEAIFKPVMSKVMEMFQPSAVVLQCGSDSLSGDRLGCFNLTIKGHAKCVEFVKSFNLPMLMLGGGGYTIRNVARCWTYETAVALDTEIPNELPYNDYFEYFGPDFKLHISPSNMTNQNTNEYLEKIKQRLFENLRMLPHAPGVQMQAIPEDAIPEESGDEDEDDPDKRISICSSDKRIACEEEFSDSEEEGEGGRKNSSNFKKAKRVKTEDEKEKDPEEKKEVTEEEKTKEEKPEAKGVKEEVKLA
# T1: SIN3B (human (endogenous in T98G)) (UniProt O75182)
# T1 sequence: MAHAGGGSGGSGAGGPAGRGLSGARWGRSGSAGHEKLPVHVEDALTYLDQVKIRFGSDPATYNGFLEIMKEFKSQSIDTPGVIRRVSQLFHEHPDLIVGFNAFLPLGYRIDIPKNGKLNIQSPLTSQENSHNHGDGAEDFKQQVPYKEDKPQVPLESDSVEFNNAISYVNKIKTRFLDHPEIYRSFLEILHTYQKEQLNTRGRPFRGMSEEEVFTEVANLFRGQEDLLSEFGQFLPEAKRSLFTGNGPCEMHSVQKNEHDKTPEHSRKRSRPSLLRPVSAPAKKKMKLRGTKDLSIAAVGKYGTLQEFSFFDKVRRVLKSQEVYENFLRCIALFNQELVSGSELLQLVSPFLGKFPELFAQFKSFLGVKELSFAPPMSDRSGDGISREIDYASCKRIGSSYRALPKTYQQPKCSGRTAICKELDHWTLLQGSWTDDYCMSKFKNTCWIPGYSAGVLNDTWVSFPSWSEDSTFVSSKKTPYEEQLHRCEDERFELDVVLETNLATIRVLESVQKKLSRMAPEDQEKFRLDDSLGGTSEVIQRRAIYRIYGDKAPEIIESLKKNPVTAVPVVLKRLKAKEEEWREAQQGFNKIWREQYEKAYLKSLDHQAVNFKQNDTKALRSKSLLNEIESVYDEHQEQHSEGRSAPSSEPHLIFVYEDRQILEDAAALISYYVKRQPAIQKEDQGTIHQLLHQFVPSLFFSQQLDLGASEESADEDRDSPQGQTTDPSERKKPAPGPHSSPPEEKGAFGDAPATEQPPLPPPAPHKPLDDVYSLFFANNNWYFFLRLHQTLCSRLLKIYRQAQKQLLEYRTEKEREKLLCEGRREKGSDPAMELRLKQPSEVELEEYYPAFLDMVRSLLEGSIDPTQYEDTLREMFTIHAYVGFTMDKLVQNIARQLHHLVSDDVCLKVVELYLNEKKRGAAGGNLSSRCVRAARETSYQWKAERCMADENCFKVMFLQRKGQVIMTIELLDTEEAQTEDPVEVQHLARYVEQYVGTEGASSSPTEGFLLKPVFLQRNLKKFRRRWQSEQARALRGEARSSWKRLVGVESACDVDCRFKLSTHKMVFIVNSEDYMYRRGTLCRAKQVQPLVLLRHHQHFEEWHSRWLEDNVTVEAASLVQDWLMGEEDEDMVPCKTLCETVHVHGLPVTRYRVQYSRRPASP
# T2: SIN3B (human (endogenous in HCT116)) (UniProt O75182)
# T2 sequence: T1 sequence
# T3: LIN37 (human (endogenous in T98G)), Q96GY3
# T3 chain: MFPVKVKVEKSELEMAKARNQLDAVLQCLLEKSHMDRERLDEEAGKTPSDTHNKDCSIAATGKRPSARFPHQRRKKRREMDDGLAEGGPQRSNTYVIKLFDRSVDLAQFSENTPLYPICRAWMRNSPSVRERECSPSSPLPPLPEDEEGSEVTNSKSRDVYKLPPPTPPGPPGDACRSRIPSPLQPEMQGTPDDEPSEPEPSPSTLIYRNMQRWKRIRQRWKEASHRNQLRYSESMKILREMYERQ
# T4: LIN37 (human (endogenous in HCT116)), Q96GY3
# T4 chain: T3 chain
# T5: SIN3B (human (endogenous in T98G)), O75182
# T5 chain: T1 sequence
# B1: SIN3B, O75182 1-1162 (protein)
# chain: T1 sequence
# B2: LIN9, Q5TKA1 1-542 (protein)
# chain: MAELDQLPDESSSAKALVSLKEGSLSNTWNEKYSSLQKTPVWKGRNTSSAVEMPFRNSKRSRLFSDEDDRQINTRSPKRNQRVAMVPQKFTATMSTPDKKASQKIGFRLRNLLKLPKAHKWCIYEWFYSNIDKPLFEGDNDFCVCLKESFPNLKTRKLTRVEWGKIRRLMGKPRRCSSAFFEEERSALKQKRQKIRLLQQRKVADVSQFKDLPDEIPLPLVIGTKVTARLRGVHDGLFTGQIDAVDTLNATYRVTFDRTGLGTHTIPDYEVLSNEPHETMPIAAFGQKQRPSRFFMTPPRLHYTPPLQSPIIDNDPLLGQSPWRSKISGSDTETLGGFPVEFLIQVTRLSKILMIKKEHIKKLREMNTEAEKLKSYSMPISIEFQRRYATIVLELEQLNKDLNKVLHKVQQYCYELAPDQGLQPADQPTDMRRRCEEEAQEIVRHANSSTGQPCVENENLTDLISRLTAILLQIKCLAEGGDLNSFEFKSLTDSLNDIKSTIDASNISCFQNNVEIHVAHIQSGLSQMGNLHAFAANNTNRD
# Columns and labels:
# [1] = target: LIN37 (human (endogenous in T98G)) (UniProt Q96GY3); assay: co-IP; endogenous proteins immunoprecipitated with antibodies on protein A/G magnetic beads from extracts of T98G cells serum-starved for 96 hours; 150 mM NaCl, 0.2% Triton X, 3 hours at 4 °C; eluates analysed by Western blot
# [2] = target: T1, SIN3B (human (endogenous in T98G)); assay: as above
# [3] = target: LIN37 (human (endogenous in HCT116)) (UniProt Q96GY3); assay: co-IP; endogenous proteins immunoprecipitated with antibodies on protein A/G magnetic beads from extracts of HCT116 cells treated with 5 µM Idasanutlin for 48 hours; 150 mM NaCl, 0.2% Triton X, 3 hours at 4 °C; eluates analysed by Western blot
# [4] = target: T2, SIN3B (human (endogenous in HCT116)); assay: as above
# [5] = target: HDAC1 (human (endogenous in T98G)) (UniProt Q13547); assay: co-IP; endogenous proteins immunoprecipitated with antibodies on protein A/G magnetic beads from extracts of T98G cells serum-starved for 96 hours; 150 mM NaCl, 0.2% Triton X, 3 hours at 4 °C; eluates analysed by Western blot
# [6] = target: T3, LIN37 (human (endogenous in T98G)), …; assay: as above; details: remark: other sources report otherwise
# [7] = target: T4, LIN37 (human (endogenous in HCT116)), …; assay: co-IP; endogenous proteins immunoprecipitated with antibodies on protein A/G magnetic beads from extracts of HCT116 cells treated with 5 µM Idasanutlin for 48 hours; 150 mM NaCl, 0.2% Triton X, 3 hours at 4 °C; eluates analysed by Western blot; details: remark: other sources report otherwise
# [8] = target: T5, SIN3B (human (endogenous in T98G)), …; assay: co-IP; endogenous proteins immunoprecipitated with antibodies on protein A/G magnetic beads from extracts of T98G cells serum-starved for 96 hours; 150 mM NaCl, 0.2% Triton X, 3 hours at 4 °C; eluates analysed by Western blot; details: remark: other sources report otherwise
molecule,measurement,setting,value
HDAC1 (from UniProt Q13547 1-482) (enzyme),binding,[1],no binding
same,binding,[2],binds
same,binding,[3],no binding
same,binding,[4],binds
LIN9 (from UniProt Q5TKA1 1-542),binding,[5],no binding
same,binding,[1],binds
same,binding,[3],binds
B1,binding,[6],no binding
same,binding,[7],no binding
B2,binding,[8],no binding

# Reference: article PMC11126580
